# Among all 310,000 compounds or so, about 14,000 (4.5%) showed an effect of 50% or more. The effect is printed as a negative number. This is one part of the list.
# Molecular target: human ether-à-go-go-related gene (hERG) potassium channel (human, UniProt Q12809)
# Experiment: primary screen, population patch clamp on CHO cells stably expressing hERG
# 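Further: peak tail current of the secondary pulse compared with the same well before compound.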
# Sequence of human ether-à-go-go-related gene (hERG) potassium channel (Q12809 whole entry, looked up): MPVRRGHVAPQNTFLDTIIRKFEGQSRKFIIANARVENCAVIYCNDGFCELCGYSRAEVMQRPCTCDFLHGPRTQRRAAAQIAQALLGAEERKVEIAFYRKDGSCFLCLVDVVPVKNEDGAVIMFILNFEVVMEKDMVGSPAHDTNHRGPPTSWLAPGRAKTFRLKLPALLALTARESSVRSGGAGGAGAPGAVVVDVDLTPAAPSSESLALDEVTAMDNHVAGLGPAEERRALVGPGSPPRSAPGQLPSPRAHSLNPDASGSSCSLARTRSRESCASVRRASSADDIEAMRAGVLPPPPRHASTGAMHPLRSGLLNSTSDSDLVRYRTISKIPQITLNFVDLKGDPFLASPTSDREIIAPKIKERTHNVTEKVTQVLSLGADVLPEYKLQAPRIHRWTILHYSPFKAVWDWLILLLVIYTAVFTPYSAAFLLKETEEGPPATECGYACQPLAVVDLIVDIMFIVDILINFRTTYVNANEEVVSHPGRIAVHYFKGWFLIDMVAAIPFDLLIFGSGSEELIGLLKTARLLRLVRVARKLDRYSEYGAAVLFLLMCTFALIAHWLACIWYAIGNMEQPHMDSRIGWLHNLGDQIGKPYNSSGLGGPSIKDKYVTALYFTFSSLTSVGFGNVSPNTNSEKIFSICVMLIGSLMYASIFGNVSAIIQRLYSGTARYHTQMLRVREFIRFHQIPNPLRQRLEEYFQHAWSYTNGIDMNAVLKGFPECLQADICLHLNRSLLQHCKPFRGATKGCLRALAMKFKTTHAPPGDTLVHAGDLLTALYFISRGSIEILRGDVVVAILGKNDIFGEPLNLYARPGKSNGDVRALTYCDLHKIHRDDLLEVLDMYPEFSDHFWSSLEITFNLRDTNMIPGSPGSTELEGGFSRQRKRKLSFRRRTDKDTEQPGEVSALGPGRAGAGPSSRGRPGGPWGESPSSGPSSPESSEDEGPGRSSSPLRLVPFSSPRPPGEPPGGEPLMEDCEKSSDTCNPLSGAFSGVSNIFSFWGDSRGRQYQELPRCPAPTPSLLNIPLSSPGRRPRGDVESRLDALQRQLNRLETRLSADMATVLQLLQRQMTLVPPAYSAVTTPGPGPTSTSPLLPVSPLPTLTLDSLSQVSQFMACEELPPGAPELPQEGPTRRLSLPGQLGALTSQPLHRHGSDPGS
row,SMILES,"hERG current change (%, negative = inhibition) at 10uM [%]"
1,Cc1cccc(C)c1OC(=O)CSc1nnc(-c2ccccc2)o1,3.2
2,CC(=O)Nc1ccccc1C,11.7
3,Cc1cccc(N(C)C(=O)c2cc(S(=O)(=O)N3CCc4ccccc43)cn2C)c1,-20.3
4,CCCCN(CCCNC(=O)C1CCN(S(=O)(=O)N2CCOCC2)CC1)c1ccccc1,-48.8
5,Cc1cc(CNC(=O)c2cc(Br)ccc2Cl)nn1C,-3.39
6,CCCN(CCC)c1nc(N(CCC)CCC)[nH]c(=O)n1,3.77
7,COc1ccc(S(=O)(=O)N2CCCC2CNC(=O)C(=O)NCc2ccc(C)cc2)cc1 (stereo not shown),-29.6
8,C=CCn1c(Cc2ccc(OC)cc2)nnc1SCC(N)=O,-11.6
9,O=C(c1ccco1)N1CCN(c2ncnc3scc(-c4cccs4)c23)CC1,-63.9
10,COc1cc2[nH]c(=O)n(CCC(=O)NCCC(C)C)c(=O)c2cc1OC,7.13
11,COc1ccccc1P(=O)(c1ccccc1)c1ccccc1,15.1
12,CC1(C)[C@H]2CC=C(CN3CCC(N4CCC(C(=O)N5CCCC5)CC4)CC3)[C@@H]1C2,-25.1
13,COc1cc(Cl)c(CN2CCCC(CO)(Cc3cccc(Cl)c3)C2)cc1OC (stereo not shown),-45.6
14,Cc1nc2c([N+](=O)[O-])c(C)c(C)cc2[nH]1,11.7
15,COc1cc(CNCc2ccc3c(c2)OCO3)c([N+](=O)[O-])cc1OC,8.31
16,O=C(NCCCN1CCOCC1)C1Cc2c(ccc3ccccc23)O1 (stereo not shown),-9.07
17,CN(CC(=O)NCc1ccc(F)cc1)S(=O)(=O)c1cccc2nsnc12,-21.1
18,CCOC(=O)c1c(C)[nH]c(C=C2C(=O)CCCC2=O)c1O,-1.8
19,COc1ccc(NC(=O)CSc2nnnn2-c2ccccc2OC)c(OC)c1,-6.71
20,Cc1[nH]c2ccccc2c1C(=O)C(=O)NCC1CCCO1 (stereo not shown),6.3
21,CC(C)c1ccc(-c2cc(C(=O)N3CCOCC3)c3cc(Br)ccc3n2)cc1,4.92
22,COc1ccccc1NS(=O)(=O)c1ccc2oc(=S)[nH]c2c1,2.14
23,CCOC(=O)N1CCN(C(=O)c2cnn3ccccc23)CC1,10.6
24,CCN1CCN(c2sc(S(C)(=O)=O)nc2S(=O)(=O)c2ccc(Cl)cc2)CC1,-36.7
25,CCCOc1ccc(/C=N/NC(=O)c2nnn(-c3nonc3N)c2-c2cccs2)cc1OC,9.32
